Laboratory results as given in ChEMBL document CHEMBL4888484, “Replenishing the malaria drug discovery pipeline: Screening and hit evaluation of the MMV Hit Generation Library 1 (HGL1) against asexual blood stage Plasmodium falciparum ,using a nano luciferase reporter read-out” (2022).
Hit rate of the full screen: of about 150,000 compounds, about 540 (0.36%) showed an effect of 50% or more. This is one part of the list.

Each molecule was assayed on Plasmodium falciparum (assay: Primary screen in NF54 nanoGlo assay, in single point, at 2uM, 72h; a lower Z score goes with more inhibition). Conditions: timepoint 72 hour.
Assay type: functional, Erythrocyte
COc1ccc(CC(=O)N2CCc3nc(N4CCCCC4)nc(Oc4cccc(OC)c4)c3C2)cc1 was tested, and the “% Inhibition” value was -12% and the Z score was 1.12. For COc1ccc(OC)c(-c2nn(-c3ccccc3)cc2CCC(=O)NCc2cccc(Cl)c2)c1, the “% Inhibition” value was -5% and the Z score was 0.6. With COCCn1nc(C)c(NC(=O)N2CC(C)CC(C)C2)c1C (centres undefined) the “% Inhibition” value was -8% and the Z score was 0.99. In the case of CC(C)c1ccc(C(=O)NC[C@H]2CCC3(CCOCC3)O2)c(O)c1, the “% Inhibition” value is reported as -2% and the Z score is reported as 0.44. For Cc1cc(C)cc(S(=O)(=O)Nc2cc(C(=O)O)ccc2N(C)Cc2ccccc2)c1, the “% Inhibition” value was -12% and the Z score was 1.2. In the case of O=C(NCCc1ccc(Cl)cc1)c1nn[nH]c1Nc1ccccc1F, the “% Inhibition” value is reported as 3% and the Z score is reported as -0.37. For C[C@H](NC(c1ccccc1)c1ccccc1)c1nnc(-c2cccs2)o1, the “% Inhibition” value was 33% and the Z score was -4.41. With COCCN(Cc1cncs1)C(=O)c1cc2c(s1)CCNC2 the “% Inhibition” value was 7% and the Z score was -1.36. For C=C1C(C(=O)Nc2ccccc2F)[C@H]1C(=O)Nc1ccccc1F (some centres undefined), the “% Inhibition” value was 0% and the Z score was -0.04. For O=C(CCc1cn[nH]c1)N(Cc1cnn(-c2ccccc2)c1)C1CC1, the “% Inhibition” value was -16% and the Z score was 2.05. COCc1cc(-c2cnn3c2CCCC3)cs1 was tested, and the “% Inhibition” value was -1% and the Z score was 0.15. In the case of Cc1onc(-c2ccc(Br)cc2)c1C(=O)NCCN1CCCCC1, the “% Inhibition” value is reported as -8% and the Z score is reported as 1.37. CCc1ccc(C(=O)N(C)Cc2nc(CC(C)C)no2)s1 was tested, and the “% Inhibition” value was -2% and the Z score was 0.31. With CN(C)c1nc2ccc(OC(=O)COc3ccccc3)cc2s1 the “% Inhibition” value was -21% and the Z score was 3.92. Cc1cc(NC(=O)CN2CCN(S(=O)(=O)c3cccs3)CC2)on1 was tested, and the “% Inhibition” value was -10% and the Z score was 2.15. Cc1cccc(C2CC2C(=O)N2CCCC(CN3CCOCC3)C2)c1 (centres undefined) was tested, and the “% Inhibition” value was -8% and the Z score was 1.14. For Cc1ccnc(NC(=O)[C@H]2CCCN2C(=O)c2ccccc2)c1C1CC1, the “% Inhibition” value was -11% and the Z score was 1.13. With CC1CC1C(=O)N1CCCC(CN2CCN(c3ccccn3)CC2)C1 (centres undefined) the “% Inhibition” value was -2% and the Z score was 0.26. Cc1ccc(-c2nc(C)sc2CC(=O)N2CCc3cc(S(=O)(=O)N(C)C)ccc32)cc1 was tested, and the “% Inhibition” value was -16% and the Z score was 1.41. For O=C(Nc1ccc2oc(-c3cccnc3)nc2c1)c1cccnc1, the “% Inhibition” value was 32% and the Z score was -3.6. COc1cc(OC)cc(N2CCC(NC(=O)[C@H]3C[C@H]3C(=O)N(C)C)CC2)c1 was tested, and the “% Inhibition” value was -9% and the Z score was 1.1. In the case of CCN(C(=O)[C@H]1CCCOC1)c1ccc(Cl)cc1F, the “% Inhibition” value is reported as -7% and the Z score is reported as 1. With CCOC(=O)CNC(=O)N1CCC2(CC1)CN(c1cccc(F)c1)[C@@H]2c1ccccc1 the “% Inhibition” value was -4% and the Z score was 0.69. CC(C)c1csc(CN(Cc2cccnc2)Cc2ccsc2)n1 was tested, and the “% Inhibition” value was -9% and the Z score was 1.27. For CCc1[nH]nc(-c2cccc(OC)c2)c1NC(=O)C1CCCCC1, the “% Inhibition” value was 1% and the Z score was -0.22. CCc1nnc(CN(C(=O)Cc2c(C)n[nH]c2C)C(C)C)o1 was tested, and the “% Inhibition” value was 5% and the Z score was -0.7. For CO[C@H]1C[C@H]2CC[C@@H](C1)N2c1ncnc2[nH]cnc12, the “% Inhibition” value was 15% and the Z score was -1.94. CCc1cnc(CN2CC[C@@]3(C2)NC(=O)N(C(C)C)C3=O)o1 was tested, and the “% Inhibition” value was -12% and the Z score was 2.21. For COc1ccc(-c2cnc3ccccc3c2)nn1, the “% Inhibition” value was -13% and the Z score was 2.48. COC1(C(=O)N2CC[C@H](c3ccc(C)cc3C)C2)CCOCC1 was tested, and the “% Inhibition” value was -7% and the Z score was 1.1. With COc1cccc(-c2cc3n(n2)CCCN(C(=O)c2ccsc2)C3)c1 the “% Inhibition” value was -3% and the Z score was 0.28. Cc1cnc(Cn2ccnc2[C@H]2CCOC2)cn1 was tested, and the “% Inhibition” value was -5% and the Z score was 0.46. For CCc1cnccc1C(=O)NC1CCN(CC2CCCO2)CC1C (centres undefined), the “% Inhibition” value was -3% and the Z score was 0.38. For CCOc1ccc(N(Cc2ccccc2F)S(=O)(=O)c2ccc3nnc(C)n3c2)cc1, the “% Inhibition” value was 40% and the Z score was -5.82. In the case of COc1ccc([C@@H](NCc2cnn(C)c2)C(F)(F)F)cc1F, the “% Inhibition” value is reported as -7% and the Z score is reported as 1.02. COc1ccccc1-c1nc(NCCc2ccccc2)nc2nn(-c3ccc(F)cc3)c(N)c12 was tested, and the “% Inhibition” value was 4% and the Z score was -0.63. With Cc1ccc(CN2CCC(O)(C(F)(F)F)CC2)nc1 the “% Inhibition” value was 6% and the Z score was -0.84. With O=C(CN1CCCC1)N1N=C(c2cccc(F)c2)C[C@H]1c1ccc2c(c1)OCO2 the “% Inhibition” value was -3% and the Z score was 0.51. Cc1ccc(-n2nc(C)c(Cc3nc(CN4C(=O)NC(C)(C)C4=O)no3)c2C)cc1Cl was tested, and the “% Inhibition” value was -4% and the Z score was 0.57. In the case of CCCN(CC(=O)N(Cc1ccccc1)Cc1ccc(C)o1)C(=O)COCc1ccccc1, the “% Inhibition” value is reported as -4% and the Z score is reported as 0.6. For CC(C)N1CCC(N2C(=O)[C@@H]3CCCN3C2=O)C1=O (some centres undefined), the “% Inhibition” value was 2% and the Z score was -0.18. C[C@H]1CN(C(=O)NCc2ccc(Cl)cn2)CCC1(F)F was tested, and the “% Inhibition” value was -12% and the Z score was 2.26.
